Data published in PubChem BioAssay AID504332 (National Center for Advancing Translational Sciences (NCATS), 2011).
Hit rate of the full screen: of about 350,000 compounds, about 31,000 (8.9%) were called active. Inconclusive results, whose numbers are uncertain, are shown with a selection of clear calls. The call rests on the fitted dose curve; in most records, active means well fitted inhibition curve with a large enough effect; inconclusive means small, poorly fitted or top-dose-only effect; inactive means no such curve, though single readings can be large or run the other way. A potency beside an inconclusive call is a rough fit, not a confirmed value. The source holds several records for some structures; these can differ, active in one and inactive in another.

Each molecule was assayed against Histone-lysine N-methyltransferase EHMT2 (Homo sapiens) (UniProt Q96KQ7) (assay: qHTS Assay for Inhibitors of Histone Lysine Methyltransferase G9a). Conditions: G9a H3K9 monomethylation, AlphaScreen, 2 h; activity, negative = inhibition: at 59 µM (top of the series) unless noted.
Chain of UniProt Q96KQ7 (Q96KQ7 whole entry, looked up): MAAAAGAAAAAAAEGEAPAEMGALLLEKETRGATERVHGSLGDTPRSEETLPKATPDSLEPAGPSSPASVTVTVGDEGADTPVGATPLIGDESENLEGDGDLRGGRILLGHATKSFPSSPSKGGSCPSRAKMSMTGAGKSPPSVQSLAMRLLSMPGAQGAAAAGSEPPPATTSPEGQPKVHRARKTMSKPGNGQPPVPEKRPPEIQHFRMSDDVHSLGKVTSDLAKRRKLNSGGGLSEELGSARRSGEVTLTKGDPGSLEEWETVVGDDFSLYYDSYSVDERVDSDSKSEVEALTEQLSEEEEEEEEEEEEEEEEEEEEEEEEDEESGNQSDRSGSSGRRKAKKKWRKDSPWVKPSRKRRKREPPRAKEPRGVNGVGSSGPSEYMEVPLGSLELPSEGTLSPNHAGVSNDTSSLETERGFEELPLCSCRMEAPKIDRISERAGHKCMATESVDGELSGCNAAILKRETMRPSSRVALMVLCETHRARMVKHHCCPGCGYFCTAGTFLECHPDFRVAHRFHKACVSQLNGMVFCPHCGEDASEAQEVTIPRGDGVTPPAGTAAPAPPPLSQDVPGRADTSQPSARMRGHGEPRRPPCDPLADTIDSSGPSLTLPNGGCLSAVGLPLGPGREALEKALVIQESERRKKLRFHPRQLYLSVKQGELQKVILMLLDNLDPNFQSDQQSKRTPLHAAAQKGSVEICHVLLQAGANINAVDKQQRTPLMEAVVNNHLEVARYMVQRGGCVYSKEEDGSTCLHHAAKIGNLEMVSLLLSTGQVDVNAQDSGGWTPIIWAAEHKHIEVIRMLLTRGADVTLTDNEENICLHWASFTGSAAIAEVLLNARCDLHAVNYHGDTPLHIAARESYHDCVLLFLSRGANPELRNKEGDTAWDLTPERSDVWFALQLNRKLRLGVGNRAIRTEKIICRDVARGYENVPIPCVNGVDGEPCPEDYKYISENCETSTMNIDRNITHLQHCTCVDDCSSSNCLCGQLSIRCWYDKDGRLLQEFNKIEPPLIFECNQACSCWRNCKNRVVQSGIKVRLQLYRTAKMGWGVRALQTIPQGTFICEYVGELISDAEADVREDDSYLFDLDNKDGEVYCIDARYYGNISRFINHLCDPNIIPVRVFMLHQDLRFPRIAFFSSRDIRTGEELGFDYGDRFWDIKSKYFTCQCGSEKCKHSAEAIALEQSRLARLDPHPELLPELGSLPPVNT
Summary of the method: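 Compounds were preincubated with 20 nM G9a for 15 min, after which biotinylated H3K9 peptide (500 nM) and SAM (20 uM) started a 2 h room-temperature reaction. Monomethylated product was quantified by antibody-based AlphaScreen chemiluminescence.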
Further: nearly all actives have a fitted effect of over 75% in size.
On the % scale 0 is the no-effect control and ±100 the full control effect; potency means the concentration at half of the fitted maximal effect; tags describe the fitted curve by direction and shape.

| Compound | activity, negative = inhibition | Potency |
| --- | --- | --- |
| CCn1c(CC(=O)Nc2ccccc2C)nnc1SCC(=O)Nc1nncs1 | inactive: -9.2% [at 102 µM] |  |
| Cn1ccnc1SCc1cc(=O)[nH]c2ccccc12 |  | inconclusive: 20 µM [inhibitor, partial curve, poor fit] |
| CC/C(=N\NC(=O)Nc1ccccc1)c1ccccc1 |  | inconclusive: 79.4 µM [inhibitor, single point] |
| COC(=O)Cn1cc(C(=O)OC)c2ccccc21 |  | inconclusive: 15.8 µM [inhibitor, partial curve, poor fit] |
| FC(F)(F)c1ccc(Sc2n[nH]c(C(F)(F)F)n2)nc1 |  | inconclusive: 89.1 µM [inhibitor, single point] |
| COc1ccc(CC(=O)Nc2sc3c(c2C(N)=O)CCCC3)cc1OC |  | inconclusive: 89.1 µM [inhibitor, single point] |
| N=c1sccn1CC(=O)Nc1ccc(Cl)c(S(=O)(=O)N2CCOCC2)c1 |  | inconclusive: 50.1 µM [inhibitor, partial curve] |
| O=C(O)COc1ccc(/C=N/NC(=O)c2ccccc2Br)cc1 |  | inconclusive: 89.1 µM [inhibitor, single point] |
| COc1ccccc1C(=O)NCCc1nc2ccccc2n1C |  | inconclusive: 89.1 µM [inhibitor, partial curve, poor fit] |
| Nc1ncnc2c1ncn2[C@@H]1O[C@H](COP(=O)(O)OP(=O)(O)OP(=O)(O)OP(=O)(O)OC[C@@H]2O[C@H](n3cnc4c(N)ncnc43)[C@@H](O)[C@H]2O)[C@@H](O)[C@H]1O |  | active: 25.1 µM |
| O=C(NC(=S)Nc1ccc(S(=O)(=O)N2CCCC2)cc1)C1CCC1 |  | inconclusive: 20 µM [inhibitor, single point] |
| Cc1ccc2nc(-c3ccc(N4C(=N)SC5CS(=O)(=O)CC54)cc3)sc2c1 (stereo not given) |  | inconclusive: 70.8 µM [inhibitor, single point] |
| Cc1ccc2oc3c(c(=O)c2c1)C(c1ccccc1F)N(CCCN1CCOCC1)C3=O (stereo not given) | inactive: 7.29% |  |
| Nc1n[nH]c(N)c1N=Nc1ccc(Cl)cc1Cl |  | inconclusive: 89.1 µM [inhibitor, single point] |
| COc1ccc(CCN(C)C(=O)CSc2nc3ncc(Cl)cc3[nH]2)cc1OC |  | inconclusive: 39.8 µM [inhibitor, single point] |
| Cc1ccc(Nc2nnc(-c3ccc(N4CCOCC4)c([N+](=O)[O-])c3)c3ccccc23)cc1 |  | inconclusive: 15.8 µM [inhibitor, single point] |
| Cn1nnnc1SCCNCc1ccccc1OCc1ccc(F)cc1 |  | inconclusive: 89.1 µM [inhibitor, partial curve, poor fit] |
| CCOC(=O)C1(CCc2ccccc2)CCN(Cc2cccc3nccnc23)CC1 |  | inconclusive: 20 µM [inhibitor, partial curve, poor fit] |
| CN(Cc1ccccc1)c1ccc(C(CC(N)=O)NC(=O)c2ccc(Br)cc2)cc1[N+](=O)[O-] (stereo not given) |  | inconclusive: 20 µM [inhibitor, single point] |
| COc1cc(C(=O)NNC(=S)Nc2ccc(S(N)(=O)=O)cc2)cc(OC)c1OC |  | active: 8.91 µM |

| Compound | activity, negative = inhibition | Potency |
| --- | --- | --- |
| CCC(NC(=O)c1ccccc1NC(=O)C(C)(C)C)C(=O)N1CCCC1 (stereo not given) | inactive: 26.6% |  |
| CCn1nc(C)c(/C=N/NC(=O)c2ccc3c(c2)c(C)c(C)n3Cc2ccccc2)c1C |  | inconclusive: 28.2 µM [inhibitor, single point] |
| NC(=O)CC(NC(=O)Cc1ccc(Cl)cc1)c1ccc(N2CCN(c3ccccn3)CC2)c([N+](=O)[O-])c1 (stereo not given) |  | inconclusive: 79.4 µM [inhibitor, single point] |
| Cc1ccc(CNC(=O)CSc2c3c(nc4cc(Cl)ccc24)CCCC3)o1 |  | inconclusive: 7.08 µM [inhibitor, single point] |
| COc1ccccc1OCCC(=O)OCC(=O)NC(=O)NC(C)(C)C |  | inconclusive: 89.1 µM [inhibitor, single point] |
| CN(C)CCCNCCCNC(=O)c1ccccn1 |  | inconclusive: 3.98 µM [inhibitor, single point] |
| Cc1ccc(S(=O)(=O)N(C)C)cc1NC(=O)CN1C(=O)NC2(CCCc3ccccc32)C1=O (stereo not given) |  | inconclusive: 1.26 µM [inhibitor, full curve] |
| COc1ccc(-n2ncc(N(C)n3cccc3)c(Cl)c2=O)cc1 |  | inconclusive: 89.1 µM [inhibitor, partial curve, poor fit] |
| O=C(O)c1c(Cl)nc2ccccn12 |  | inconclusive: 79.4 µM [inhibitor, single point] |
| Cc1ccc(OCCCNC2CCCC2)cc1 |  | active: 12.6 µM |
| O=C(/C=C/Nc1ccc(F)cc1)c1ccc(Oc2ncccn2)cc1 |  | inconclusive: 20 µM [inhibitor, single point] |
| Cc1ccc(NC(=S)Nc2ccc3[nH]c(=O)[nH]c3c2)cc1C |  | inconclusive: 50.1 µM [inhibitor, partial curve] |
| CCCS(=O)(=O)c1ncc(Cl)c(C(=O)Nc2scc(-c3ccccc3)c2C(=O)OCC)n1 |  | inconclusive: 7.08 µM [inhibitor, full curve] |
| CCCCNc1nc2ccccc2n1CC(=O)Nc1ccc2c(c1)OCCO2 |  | inconclusive: 89.1 µM [inhibitor, partial curve, poor fit] |
| CCn1c(=O)c2c(nc(SCc3ccccn3)n2C)n(C)c1=O |  | inconclusive: 79.4 µM [inhibitor, single point] |
| Cc1cccc([C@@H]2[C@@H]3C(=O)N(Cc4ccccc4)C(=O)[C@@H]3[C@]3(Cc4ccc(Cl)cc4)C(=O)N(c4cccc(Cl)c4)C(=O)N23)c1 | inconclusive: -52.8% [inhibitor] [at 2.33 µM] |  |
| COc1cc2c(cc1O)CCN(C(=O)CSc1nncn1C)[C@@H]2C | inactive: -4.31% [at 0.501 µM] |  |
| O=C(c1ccncc1)N1CCC2(CCCN(c3ccccn3)C2)CC1 | inactive: 1.64% [at 12.7 µM] |  |
| CC(=O)NNc1cc(=O)c2c(=O)n(C)c(=O)n(C)c2[nH]1 | inactive: 23.3% |  |
| CCOc1ccc(C(=O)Nc2ccc(C(F)(F)F)n(C)c2=O)cc1 | inactive: 17.3% [at 102 µM] |  |
